The supplement of paper PMC10338343
± gives the standard deviation. The list shows a part of the results, in another mix than the full data.

Test system: MIWI (PIWIL1) piRISC loaded with piRNA #1 (30 nt)
Assay: pre-steady-state target cleavage rate (min^-1); MIWI and MILI are mouse PIWI proteins and EfPiwi is from a freshwater sponge; tags in brackets are library labels; higher = faster piRNA-guided slicing of the target
Details: guide: piRNA #1 5'p-UGAGGUAGUAGGUUGUAUAGUAUCCAGAGG; auxiliary factor: 500 nM mouse GTSF1
In short: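 With or without 500 nM GTSF1 partner protein, 1 nM active affinity-purified piRISC carrying one synthetic guide was mixed with 0.1 nM transcribed, DNA-blocked target RNA library in HEPES–potassium acetate buffer at 33 °C for 0–8 or 0–960 min. Uncleaved targets were sequenced and normalised to depth and to weakly complementary targets, three trials were pooled, and k3 was capped at 0.0001 min^-1. The pre-steady-state cleavage rate came from a burst-and-steady-state fit.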

Sequence | pre-steady-state target cleavage rate
GGACUGGAUACUAUACAACCUUCUACCUCA | 0.707 ± 0.047
GGAGACCUUACUAUAGAACCUACUUCCUCA | 0.12 ± 0.036
CCUCUGGAUACUAUACAACCUACUACUCUCA | 2.32 ± 0.16
GGACUGGAUACUAACAACCUACUACCUCA | 1.52 ± 0.14
GGAGAGCAUAGUAUACAACCUACUACCUCA | 0.42 ± 0.027
GGAGACCUUACUAUACAACCUUCUACCUGA | 0.243 ± 0.033
GGAGUGGAUACUAUACAACGUACUACGUCA | 0.237 ± 0.03
GGUCUGGAUACAAUACAACCUACUACGUCA | 0.783 ± 0.068
CCUCUGGAUACAUAACAACCUACUACCUCA | 1.24 ± 0.13
GGAGACCAUACUAUACAACUUACUACCUCA | 0.377 ± 0.026
GGAGACGAUACAAUACAACCUACUACGUCA | 0.858 ± 0.073
GGUCUCGAUACUUUACAACCUACUACCUCA | 1.54 ± 0.093
GGAGACCUAACUAUACUACCUUCUACCUCA | 0.00903 ± 0.0034
GGACUGGAUACUAGACAACCUACUACCUCA | 1.69 ± 0.12
CCUCUGGAUACUAUAGAACCAACUACCUCA | 0.0448 ± 0.0073
GGAGACCUAACUAUACAUCGUACUACCUCA | 0.00737 ± 0.0031
